Screen size: about 110,000 compounds; about 230 (0.21%) showed an effect of 50% or more. This is one part of the list.
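Also: 30 min substrate incubation versus DMSO and 10 µM JCP410 controls.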

The target of this assay is DPAP1 (Plasmodium falciparum, UniProt Q8IIJ9). Briefly: primary screen, percent inhibition; read by cleavage of a fluorogenic dipeptide substrate; higher = more effect of the substance. On the set-up: species or system P. falciparum D10 trophozoite lysates; single well.
Chain of DPAP1 (Q8IIJ9 whole entry, looked up): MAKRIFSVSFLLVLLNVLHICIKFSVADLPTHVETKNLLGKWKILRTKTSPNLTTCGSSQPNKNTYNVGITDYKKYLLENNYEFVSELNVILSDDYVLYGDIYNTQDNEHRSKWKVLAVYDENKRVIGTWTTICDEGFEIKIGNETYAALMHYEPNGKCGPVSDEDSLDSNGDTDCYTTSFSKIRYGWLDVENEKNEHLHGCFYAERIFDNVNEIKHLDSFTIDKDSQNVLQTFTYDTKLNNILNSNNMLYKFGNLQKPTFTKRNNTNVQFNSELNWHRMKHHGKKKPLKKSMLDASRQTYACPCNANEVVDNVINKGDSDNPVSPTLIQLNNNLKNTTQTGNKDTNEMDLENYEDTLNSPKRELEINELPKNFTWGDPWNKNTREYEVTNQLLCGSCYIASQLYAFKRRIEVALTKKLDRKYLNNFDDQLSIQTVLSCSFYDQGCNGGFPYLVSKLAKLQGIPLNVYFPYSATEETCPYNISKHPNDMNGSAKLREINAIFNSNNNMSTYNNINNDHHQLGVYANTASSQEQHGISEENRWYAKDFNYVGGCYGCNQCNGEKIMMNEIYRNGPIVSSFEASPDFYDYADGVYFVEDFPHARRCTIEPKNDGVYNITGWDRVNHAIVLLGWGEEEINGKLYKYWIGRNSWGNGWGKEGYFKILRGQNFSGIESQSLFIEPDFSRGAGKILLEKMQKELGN
For the compound `CN(CCCNC(=O)c1ccc2nc(N3CCCCC3)sc2c1)C1CCCCC1`, the “% Inhibition @ 10 uM” value is -6.01%. In the case of `OCC/N=C/c1c(-c2ccccc2)nn(-c2nc3ccccc3s2)c1O` it was -1.22%; in that of `CC(C)(C)c1ccc(S(=O)(=O)N2CCCC(C(=O)O)C2)cc1` (stereo not shown), -3.08%. For `COc1ccc(S(=O)(=O)N2CCN(c3cccc(Cl)c3)CC2)cc1` the value was 0.526%; for `CCCC1CCC(C2=N/C(=C\c3cc(OC)ccc3OC)C(=O)O2)CC1` (stereo not shown), -2.41%; for `O=C(O)CCC(=O)Nc1sc2c(c1C(=O)Nc1ccc(Cl)cc1)CCCCC2`, 23.7%. For `O[C@]12CCCC[C@@H]1[C@@H](c1ccncc1)NCC2` the value was -0.0372%; for `CCOC(=O)c1cc2c(=O)n3ccccc3nc2n(CC(C)C)/c1=N/C(=O)c1ccc2ccccc2c1`, 2.84%. `S=C(NCc1ccco1)Nc1ccccc1`: the “% Inhibition @ 10 uM” value is on record as -5.48%. On to `Cc1ccc(CNC(=O)CNS(=O)(=O)c2ccc3nc(C)sc3c2)cc1`, for which the “% Inhibition @ 10 uM” value is -6.09%. For `CCOC(=O)C1=C(CSc2ccc(Cl)cc2)NC(=O)NC1c1cc(C)ccc1C` (stereo not shown), the “% Inhibition @ 10 uM” value is reported as 1.51%.

`Cn1c(=O)c2c(ncn2Cc2cccc(C(F)(F)F)c2)n(C)c1=O`: the “% Inhibition @ 10 uM” value is 9.83%. Consider `O=C(Nc1cccnc1)c1ccc(CNS(=O)(=O)c2cccc(C(F)(F)F)c2)cc1`, for which the “% Inhibition @ 10 uM” value was 3.72%. For `O=C(Nc1cccc(Cl)c1)N1CCN(c2ccc([N+](=O)[O-])cc2)CC1` the value was -4.94%. Turning to `Brc1ccccc1-c1nnc2sc(Cc3ccccc3)nn12`, the “% Inhibition @ 10 uM” value is given as -4.02%.

Consider `O=C1NC(=O)/C(=C/c2ccc(-c3cccc(Cl)c3Cl)o2)N1`, for which the “% Inhibition @ 10 uM” value is recorded as -1.25%. As for `CCOC(=O)c1c(C)[nH]c(C)c1S(=O)(=O)N1CCC2(CC1)OCCO2`, the “% Inhibition @ 10 uM” value is reported as -2.15%. Take `CCOc1cccc(C2C(C#N)=C(N)Oc3[nH]nc(C)c32)c1OCc1ccc(Cl)cc1` (stereo not shown): the “% Inhibition @ 10 uM” value turned out to be 5.31%. In the case of `CCOC(=O)C1=C(C)OC(N)=C(C#N)C1c1ccc(SC)cc1` (stereo not shown) it was 3.03%; in that of `CN(C)S(=O)(=O)c1ccc(-c2cs/c(=N\c3ccccc3)n2CCN2CCOCC2)cc1`, -2.46%. For `CC(=O)c1ccc(-n2nncc2C(C)(C)C)cc1`, the “% Inhibition @ 10 uM” value is reported as 5.63%.

On to `Cc1cc(C)n(Cc2ccc(C(=O)Nc3ccc(Br)cc3C)o2)n1`, for which the “% Inhibition @ 10 uM” value is reported as -3.37%. Regarding `COc1ccc(C2=NN(C(C)=O)C(c3ccccc3F)C2)cc1OC` (stereo not shown), the “% Inhibition @ 10 uM” value is -1.42%.

As for `Cc1ccc(NC(=O)c2ccc(C)o2)c(Br)c1`, the “% Inhibition @ 10 uM” value is recorded as -3.26%. For `Cc1ccc(S(=O)(=O)CC2CC2(Cl)Cl)cc1` (stereo not shown), the “% Inhibition @ 10 uM” value is given as -1.81%. In the case of `CC(=O)N1N=C(c2ccc(O)cc2)CC1c1c(Cl)cccc1Cl` (stereo not shown) it was -0.0938%. For `CSc1ccc2ccccc2[n+]1C` the value was -0.615%. In the case of `Cc1cc(=O)n(Cc2ccccn2)c2c1c(C)nn2-c1cccc(F)c1` it was 5.73%; in that of `C#CCSc1nc2ccccc2c(=O)n1CC`, -1.02%. As to `COc1ccc(C(=O)NC2CCCCC2NC(=O)c2ccc(OC)cc2)cc1` (stereo not shown), the “% Inhibition @ 10 uM” value is listed as -1.88%.

With `COc1ccccc1C(=O)N/C(=C\c1ccccc1)C(=O)NC(Cc1ccccc1)C(=O)O` (stereo not shown), the “% Inhibition @ 10 uM” value is on record as -6.9%. For `CCS(=O)(=O)N1CCC2(CC1)OC(=O)C(C)=C2C(=O)N1CCN(c2ccccn2)CC1` the value was 1.71%; for `COc1cc(C2CC3=Nc4ccccc4NC(c4ccc(O)cc4)C3=C(O)C2)cc(OC)c1OC` (stereo not shown), 2.69%. For the compound `CC(C)(C)c1ccc(C(=O)Nc2cc(Cl)ccc2Cl)cc1`, the “% Inhibition @ 10 uM” value is given as 5.1%. `COc1ccc(C(=O)Nc2nc3c(s2)CCc2ccccc2-3)cc1`: the “% Inhibition @ 10 uM” value is reported as -1.95%.

Consider `CCc1ccc(/C=C/C(=O)c2cc3cccc(OC)c3oc2=O)cc1`, for which the “% Inhibition @ 10 uM” value is listed as 9.02%.

As to `O=C1NC(c2ccc(F)cc2)(C(F)(F)F)C(=O)N1c1cccnc1` (stereo not shown), the “% Inhibition @ 10 uM” value is -4.11%.

For the compound `COc1ccc(CNS(=O)(=O)c2c[nH]cn2)cc1`, the “% Inhibition @ 10 uM” value came to 4.51%.

Regarding `CO/C(O)=C1\C(C)=NC2=C(C(=O)CCC2)C1c1ccc(Cl)cc1Cl` (stereo not shown), the “% Inhibition @ 10 uM” value is on record as 4.38%. On to `CC(C)CC(C(=O)O)N1C(=O)c2cc(Cl)c(Cl)cc2C1=O` (stereo not shown), for which the “% Inhibition @ 10 uM” value was -7.15%. For `COC(=O)c1sc(NC(=O)COc2ccc(Cl)cc2)nc1C` the value was -1.25%; for `CCc1c(-c2ccccc2)nc(N)c(C#N)c1-c1cccs1`, -3.13%; for `O=C(CN1C(=O)C2C3C=CC(C3)C2C1=O)Nc1nccs1` (stereo not shown), -0.85%.

For the compound `CC(CNC(=O)Cn1ncc2c3ccccc3n(Cc3ccccc3)c2c1=O)c1ccccc1` (stereo not shown), the “% Inhibition @ 10 uM” value is 1.8%. In the case of `O=C(O)C1CCCCC1C(=O)Nc1ccccc1C(=O)N1CCN(c2ccc(F)cc2)CC1` (stereo not shown) it was -0.95%; in that of `CCOC(=O)N1CCN(c2nc3ccc(C)cc3n3nnnc23)CC1`, -0.416%. In the case of `CN(C)CCN(C)Cc1c(F)cccc1Cl` it was -2.44%; in that of `CC(N)Cc1ccccc1S(=O)c1ccccc1` (stereo not shown), -0.981%. With `COc1ccc2c(c1)CCC1=C2N=C(S)NC1c1ccccc1` (stereo not shown), the “% Inhibition @ 10 uM” value is recorded as 3.15%.

Consider `CCCc1ccc(OCC(=O)O)cc1`, for which the “% Inhibition @ 10 uM” value came out at 3.44%. With `CN1CCCN(C2CCC(C(C)(C)C)CC2)CC1` (stereo not shown), the “% Inhibition @ 10 uM” value is on record as -0.0908%. `CCOc1cccc(NC(=O)C2CC(=O)N(c3ccc(Cl)cc3)C2)c1` (stereo not shown): the “% Inhibition @ 10 uM” value is given as -14.4%. As for `NC(=O)Cc1c[nH]c2cccc(O)c12`, the “% Inhibition @ 10 uM” value came out at 4.73%.

Turning to `Cc1[nH]c(C)c(S(=O)(=O)N(C)Cc2ccccc2)c1C(=O)N1CCCC1`, the “% Inhibition @ 10 uM” value is on record as -5.91%. In the case of `CC1(C)C(=O)C(C)(C)C12SCC1C(=O)N(Cc3ccccc3)C(=O)C12` (stereo not shown), the “% Inhibition @ 10 uM” value was -3.41%. For `O=C(O)c1ccc2c(c1)C(=O)N(c1cc(C(F)(F)F)ccc1Cl)C2=O` the value was 3.72%. For `Cc1ccc(COC(=O)c2nn(-c3ccccc3)nc2N)cc1` the value was -0.403%. As for `Cc1ccc(C(=O)Cn2c(=N)n(C)c3ccccc32)cc1`, the “% Inhibition @ 10 uM” value is -1.89%. Regarding `COCc1nn2cc(-c3ccc(C)cc3C)nc2s1`, the “% Inhibition @ 10 uM” value is recorded as -4.54%.

Turning to `Cc1ccc(S(=O)(=O)/N=C(/NC(Cc2ccccc2)C(=O)O)c2ccccc2)cc1` (stereo not shown), the “% Inhibition @ 10 uM” value is listed as 4.54%.

For the compound `Cc1nc(-n2cccc2)sc1C(=O)NCCc1ccc(Cl)cc1`, the “% Inhibition @ 10 uM” value is 4.22%. `Cc1[nH]c2ccccc2c1CCN1C(=O)c2ccccc2C1=O`: the “% Inhibition @ 10 uM” value was -1.57%. For `CCC(=O)N(/C=C1\Sc2ccccc2C1=O)c1cccc(Br)c1` the value was -11%; for `Cc1nnc(N2CCCC(C(=O)NCCc3c[nH]c4ccccc34)C2)c2nn(-c3ccccc3)c(C)c12` (stereo not shown), 5.04%.

The values are drawn from PMC6919601, “Identification of Plasmodium dipeptidyl aminopeptidase allosteric inhibitors by high throughput screening” (PLoS ONE, 2019).
